Measurements reported in PubChem BioAssay (NCI).
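In this assay, cells in 96-well plates receive the compound at five concentrations for 48 hours. Endpoints are linearly interpolated between the surrounding concentrations. GI50: concentration for 50% inhibition of growth.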 Not every entry of the source has a single result; some have several. This list holds those alone. There may be further records. A record mostly stands for its own series of concentrations, which the source does not state; some values may only mark the edge of a range.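 The concentration for full growth arrest is given as TGI.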

Columns and labels:
Experiment in all cases: inhibition of tumour cell growth, NCI panel, 48 h
[1] = tested on: HCT-116 colon
[2] = tested on: U251 CNS
[3] = tested on: SNB-19 CNS
[4] = tested on: NCI-H460 lung
[5] = tested on: NCI-H226 lung
[6] = tested on: MOLT-4 leukemia
[7] = tested on: HL-60(TB) leukemia
[8] = tested on: MDA-MB-231 breast
[9] = tested on: MCF7 breast
[10] = tested on: CCRF-CEM leukemia
[11] = tested on: EKVX NSCLC
[12] = tested on: LOX IMVI melanoma
[13] = tested on: UACC-257 melanoma
[14] = tested on: IGROV1 ovarian
[15] = tested on: OVCAR-5 ovarian
[16] = tested on: DU-145 prostate
[17] = tested on: SK-MEL-28 melanoma
[18] = tested on: PC-3 prostate
[19] = tested on: OVCAR-8 ovarian
[20] = tested on: HCT-15 colon
[21] = tested on: SN12C renal
[22] = tested on: ACHN renal
[23] = tested on: HCC-2998 colon
[24] = tested on: SK-MEL-5 melanoma
[25] = tested on: OVCAR-3 ovarian
[26] = tested on: A498 renal
[27] = tested on: SF-268 CNS
[28] = tested on: HOP-92 NSCLC
[29] = tested on: T-47D breast
[30] = tested on: HOP-62 NSCLC
[31] = tested on: SNB-75 CNS

O=C(Nc1cccc(-n2ccc3c(NC(=O)c4ccccc4)nccc32)c1)c1ccc(Cl)c(C(F)(F)F)c1
TGI [1]: 18.6 µM [1 test] and 708 nM [mean of 2 tests]
TGI [2]: 19 µM [1 test] and 752 nM [mean of 2 tests]
GI50 [3]: 16.8 µM [1 test] and 185 nM [mean of 2 tests]
TGI [3]: > 100 µM [1 test] and 4.06 µM [mean of 2 tests]
TGI [4]: 15.6 µM [1 test] and 476 nM [mean of 2 tests]
GI50 [5]: > 100 µM [1 test] and 310 nM [mean of 2 tests]
GI50 [6]: 3.95 µM [1 test] and 332 nM [mean of 2 tests]
TGI [6]: 98.1 µM [1 test] and 9.49 µM [mean of 2 tests]
GI50 [7]: 22.4 µM [1 test] and 163 nM [mean of 2 tests]
TGI [7]: 64.3 µM [1 test] and 1.33 µM [mean of 2 tests]
GI50 [8]: 29.2 µM [1 test] and 180 nM [mean of 2 tests]
TGI [8]: > 100 µM [1 test] and 1.09 µM [mean of 2 tests]
GI50 [9]: 2.92 µM [1 test] and 60.5 nM [mean of 2 tests]
TGI [9]: 20.4 µM [1 test] and 785 nM [mean of 2 tests]
GI50 [10]: 137 nM and 5.3 µM
TGI [10]: 1.31 µM and 51.1 µM
GI50 [11]: > 100 µM [1 test] and 619 nM [mean of 2 tests]
TGI [12]: 13.9 µM [1 test] and 766 nM [mean of 2 tests]
TGI [13]: > 100 µM [1 test] and 4.81 µM [mean of 2 tests]
GI50 [14]: 64.6 µM [1 test] and 196 nM [mean of 2 tests]
TGI [14]: > 100 µM [1 test] and 4.79 µM [mean of 2 tests]
GI50 [15]: > 100 µM [1 test] and 222 nM [mean of 2 tests]
TGI [15]: > 100 µM [1 test] and 4.89 µM [mean of 2 tests]
GI50 [16]: 12.1 µM [1 test] and 144 nM [mean of 2 tests]
TGI [16]: > 100 µM [1 test] and 453 nM [mean of 2 tests]
GI50 [17]: 17.5 µM [1 test] and 244 nM [mean of 2 tests]
TGI [17]: > 100 µM [1 test] and 1.08 µM [mean of 2 tests]
TGI [18]: > 100 µM [1 test] and 2.99 µM [mean of 2 tests]
GI50 [19]: 3.37 µM [1 test] and 175 nM [mean of 2 tests]
TGI [19]: 33.9 µM [1 test] and 990 nM [mean of 2 tests]
GI50 [20]: 485 nM [1 test] and 34.3 nM [mean of 2 tests]
TGI [20]: 47.3 µM [1 test] and 869 nM [mean of 2 tests]
GI50 [21]: 10.1 µM [1 test] and 226 nM [mean of 2 tests]
TGI [21]: > 100 µM [1 test] and 1.15 µM [mean of 2 tests]
GI50 [22]: 8.8 µM [1 test] and 144 nM [mean of 2 tests]
TGI [22]: > 100 µM [1 test] and 2.1 µM [mean of 2 tests]
GI50 [23]: 12.4 µM [1 test] and 193 nM [mean of 2 tests]
TGI [23]: 70.7 µM [1 test] and 2.23 µM [mean of 2 tests]
GI50 [24]: 7.78 µM [1 test] and 70.6 nM [mean of 2 tests]
TGI [24]: > 100 µM [1 test] and 206 nM [mean of 2 tests]
GI50 [25]: 19 µM [1 test] and 98.1 nM [mean of 2 tests]
TGI [25]: > 100 µM [1 test] and 331 nM [mean of 2 tests]
GI50 [26]: 32 µM [1 test] and 88.9 nM [mean of 2 tests]
TGI [26]: > 100 µM [1 test] and 903 nM [mean of 2 tests]
GI50 [27]: 13.3 µM [1 test] and 189 nM [mean of 2 tests]
TGI [27]: > 100 µM [1 test] and 1.87 µM [mean of 2 tests]
TGI [28]: > 100 µM [1 test] and 4.24 µM [mean of 2 tests]
TGI [29]: > 100 µM [1 test] and 2.05 µM [mean of 2 tests]
GI50 [30]: 11.6 µM [1 test] and 276 nM [mean of 2 tests]
TGI [30]: > 100 µM [1 test] and 1.26 µM [mean of 2 tests]
GI50 [31]: 153 nM and 34.5 µM
